# According to the supplement of paper PMC11417369:
# ± gives the standard deviation of the averaged measurements. The list shows a part of the results.
# System: PfAP2-EXP AP2 domain (GST-tagged)
# Experiment: gcPBM binding intensity (ln(normalized median fluorescence intensity)); higher = stronger DNA binding
# How it was run: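 Probes on an Agilent 4 × 180k array were primer-extended, double-stranded and 36 bp long, taken from intergenic genomic regions, with negative controls added. GST-tagged P. falciparum DNA-binding domains from E. coli, about 25 μg on average, were applied to the array for 1 h in 1× PBS containing 1% milk, 0.2 mg/ml BSA, 0.5% salmon testes DNA and 0.03% Triton X-100. Binding intensity, obtained after Alexa488 anti-GST antibody detection and a 488 nm scan, is the highest Masliner-normalised natural-log median intensity across replicate spots of either probe orientation.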
row,Sequence,gcPBM binding intensity (ln)
1,AAAATATTTATTTTTTGTACACATAAAAACGCACTT [XGTACX_site4132],8.62 ± 0.11
2,ATATGTCCATATAGTAAATGTTACATTTTAAAGCGC [XGTACX_negctrl_site168],8.59 ± 0.32
3,ATTCTTAAAAAATAAGTGCAAAATAATTAAATAAAT,8.94 ± 0.071
4,AGAATGGTTTATAAAGGTACGTAATTTTTAATTTTA [XGTACX_site383],8.2 ± 0.38
5,TAAAAAAATTATATTTGTACATATTAATATAGCCTT [XGTACX_site4833],8.33 ± 0.37
6,AAACGTATTCTATAAAGTACATTATTATAGTAGACC [XGTACX_site8068],8.53 ± 0.37
7,TATTGAATAAAATGCACACGCATGCGTTATTTATTA [CACACA_site3479],8.96 ± 0.18
8,AAAATGTAATATTGGGTGCACAATAAGTTTGATGTC,9.565 ± 0.021
9,TAGTATTAAATATATACACACATATATACCTATAGA [CACACA_site5219],8.44 ± 0.38
10,TGAAAAGATAAAAAAAGTACACACACACATATATAT [XGTACX_site6504],9.02 ± 0.45
11,TTTAGTGTTATAAAAAGTACATAATAATTCCTTTTC [XGTACX_site3208],8.08 ± 0.028
12,TTATAAATAATGAGAAACATTAAATTTAATCATAAA [CACACA_negctrl_site523],8.21 ± 0.4
13,AAAAATTCAATAGGACGTACTAAAACATTCATTAAT [XGTACX_site1712],8.7 ± 0.48
14,TACTATATATATATATATATATATATATATATTTAT [GTGCAC_negctrl_site593],8.7 ± 0.071
15,GCTTATATTAATAAGGTGCTTTTTATTTCGTGTGTA [GTGCAC_site9649],8.61 ± 0.36
16,TTATATAAAGAATGTACACACAGAAATGCACAGACA [CACACA_site5288],8.9 ± 0.32
17,AATATGTACAGACATACACACATATTTATATTTATA [CACACA_site6694],8.49 ± 0.36
18,TCATAGTATAAACACACACACACACCCATATATATA [CACACA_site8512],8.93 ± 0.29
19,TAAATATATAAATACACACACACCAAAGCAATAGAT [CACACA_site5605],9.05 ± 0.61
20,TCCATATGCATGTATTGTACTGTAATATATTAAAAA [XGTACX_site472],8.89 ± 0.27
21,AGCAGTCGACAGGACAGTACACAGTAGCCAGGAAAT [XGTACX_site4929],8.88 ± 0.72
22,AAAAAAAAAAAAGAAACACACACATATATATATATA [CACACA_site8525],10.1 ± 0.31

row,Sequence,gcPBM binding intensity (ln)
1,ATTATTAAAAATATGGGTACATATTATTGTTATATA [XGTACX_site1958],8.32 ± 0.2
2,TGAATATAACAAATATGTACTTAAAATTGTTATATT [XGTACX_site5679],8.38 ± 0.24
3,CACACTTGCTCCTGTTGTACATAACCATAAGCAACA [XGTACX_site2102],8.85 ± 0.34
4,AAACTTTACATTACTTGTACATATATTCTATATAAT [XGTACX_site8640],8.78 ± 0.37
5,TAAAGAAATAAATACATACACACATATATATATATA [CACACA_site3363],10.2 ± 0.5
6,TTATATTTTACAAATGCACACATAATTTTTTTTTTT [CACACA_site8890],8.38 ± 0.19
7,AAAAAAAAAAAAAAATGTACATGACATGACATGACA [XGTACX_site4020],8.49 ± 0.4
8,TTTGATAATAAGATATAATACTTAAATATATATATA [GTGCAC_negctrl_site339],9.36 ± 0.12
9,AAATATATATTCAAAAGTACACAATTTGTTAATAAT [XGTACX_site8917],8.59 ± 0.33
10,TATTTTACGCGGTTTATAATGACATGTTCTATATTT [CACACA_negctrl_site1184],8.9 ± 0.51
11,AGCCCTTTTTTTTTTTAGAATATTGCATAATTATAT [XGTACX_negctrl_site546],8.55 ± 0.35
12,GTATTGTATGGATGGGGTACTATATATATATATTTT [XGTACX_site1694],9.51 ± 0.62
13,TATATAAATATATCCACACACATACCTATATTAATA [CACACA_site6184],8.36 ± 0.47
14,TTTATATGTTTTAAGTGTACACATATAATGTATTTT [XGTACX_site3069],8.7 ± 0.23
15,TTATAATTAAATTTCACACAGTTCATAACATAATTA [CACACA_site5501],8.29 ± 0.39
16,TAAGGGAGAGATTTGTATCATAAGCAACTTTCAAAA [CACACA_negctrl_site1436],8.37 ± 0.32
17,ACTTTCAACATGAAGTTGCACTTTTTTTTTTTTCTT,8.6 ± 0.43
18,TAATTAAATAAAAAAAAATATATATATATATATATA [XGTACX_negctrl_site616],10.12 ± 0.085
19,TTTTTTAAAAATAACTGTACAGAGGCTGTTAGGATA [XGTACX_site2521],9.05 ± 0.33
20,AGACAATATTAATAAGGTACACATATATATTAAAAA [XGTACX_site6709],8.61 ± 0.38
21,TATAATTTTTTTGAATTATATATATATATATATAAT [XGTACX_negctrl_site26],8.27 ± 0.17
22,TGATATAAAATTAAAGTGCAAAAAAAAAATAAAAAA,8.65 ± 0.34
